Results are given in words; binding and its absence hold for the method and conditions named. Some entries that bind do so weakly or less than the wild type.
T1: Mutant-2 human BCMA protein-mouse Fc (human)
T1 construct: also called mutant-2 human BCMA-mouse Fc (del32-35G); mutant-2 BCMA protein
T1 chain: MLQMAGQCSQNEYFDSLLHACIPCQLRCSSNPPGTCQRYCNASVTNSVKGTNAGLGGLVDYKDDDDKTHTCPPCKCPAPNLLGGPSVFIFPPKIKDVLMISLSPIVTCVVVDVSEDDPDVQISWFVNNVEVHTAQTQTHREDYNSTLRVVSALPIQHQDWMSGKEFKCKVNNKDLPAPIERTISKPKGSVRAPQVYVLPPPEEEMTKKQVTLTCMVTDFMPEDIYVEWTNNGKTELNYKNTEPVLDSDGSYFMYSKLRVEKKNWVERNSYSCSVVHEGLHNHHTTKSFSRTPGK

Sequences of proteins named here, by UniProt entry; tags and fusion partners are left off. Residues count along the entry.
UniProt O88472, residues 1-49: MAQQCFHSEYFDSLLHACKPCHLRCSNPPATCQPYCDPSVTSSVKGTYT

T2: Wild type human BCMA protein-mouse Fc (human)
T2 construct: also called wild type human BCMA-mouse Fc; wild type BCMA protein
T2 chain: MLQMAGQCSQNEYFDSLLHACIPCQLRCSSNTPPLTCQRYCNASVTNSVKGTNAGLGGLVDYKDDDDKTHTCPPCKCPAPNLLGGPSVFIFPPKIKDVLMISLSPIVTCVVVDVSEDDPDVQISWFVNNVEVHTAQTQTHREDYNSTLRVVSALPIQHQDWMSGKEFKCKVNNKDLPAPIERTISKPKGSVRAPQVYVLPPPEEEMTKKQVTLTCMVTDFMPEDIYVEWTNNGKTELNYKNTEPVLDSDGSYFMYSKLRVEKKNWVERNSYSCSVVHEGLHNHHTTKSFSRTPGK

T3: BCMA on MM1R cells (human, UniProt Q02223)
T3 construct: full length, on the surface of MM1R multiple myeloma cells; also called MM1R multiple myeloma cell line
T3 sequence (receptor, looked up): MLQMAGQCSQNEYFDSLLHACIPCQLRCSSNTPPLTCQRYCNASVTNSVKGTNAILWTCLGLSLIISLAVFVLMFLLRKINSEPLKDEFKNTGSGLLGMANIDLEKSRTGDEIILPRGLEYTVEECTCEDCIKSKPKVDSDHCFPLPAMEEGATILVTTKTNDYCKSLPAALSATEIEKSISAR

T4: Mutant-1 human BCMA protein-mouse Fc (human)
T4 construct: also called mutant-1 human BCMA-mouse Fc (17G-18G); mutant-1 BCMA protein
T4 chain: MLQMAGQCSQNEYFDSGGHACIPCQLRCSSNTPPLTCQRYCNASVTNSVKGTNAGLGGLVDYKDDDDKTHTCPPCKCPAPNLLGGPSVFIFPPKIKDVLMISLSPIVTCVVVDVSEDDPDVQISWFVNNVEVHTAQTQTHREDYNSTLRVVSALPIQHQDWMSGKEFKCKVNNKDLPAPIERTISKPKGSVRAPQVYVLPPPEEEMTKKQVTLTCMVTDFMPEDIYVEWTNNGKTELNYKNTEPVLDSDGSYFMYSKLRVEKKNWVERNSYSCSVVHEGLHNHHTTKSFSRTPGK


Assays:
[1] = target: his-tagged human BCMA protein (ACROBiosystems, catalog # BCA-H522y-100 ug) (human) (UniProt Q02223); assay: SPR, his-tagged human BCMA as analyte
[2] = target: his-tagged human BCMA protein (ACROBiosystems, catalog # BCA-H522y-100 ug) (human) (UniProt Q02223); assay: ELISA, his-tagged BCMA on Ni-NTA plate at 2 µg/mL, antibody at 20 µg/mL
[3] = target: his-tagged mouse BCMA protein (ACROBiosystems, catalog # BCA-M52H3) (mouse) (UniProt O88472); assay: as above
[4] = target: his-tagged cynomolgus BCMA protein (ACROBiosystems, catalog # BCA-052H7) (cynomolgus); assay: as above
[5] = target: T1, Mutant-2 human BCMA protein-mouse Fc; assay: bio-layer interferometry, antibody (100 nM) loaded on AR2G sensor, BCMA-mouse Fc in solution
Method: (§1) The results of the protein-protein binding assays described in Example 8 were used to design an epitope mapping assay using bio-layer interferometry. Various anti-BCMA antibodies (2C5, 2E1, 4C9, 6G8, Bluebird C11D5, GSK J6M0, or isotype control) (100 nM) were loaded onto AR2G sensors and reacted with buffer or one of three types of human BCMA proteins including: including: wild type human BCMA-mouse Fc (SEQ ID NO:5), mutant-1 human BCMA-mouse Fc (double mutation 17G-18G; SEQ ID NO:6), or mutant-2 human BCMA-mouse Fc (mutation del32-35G; SEQ ID NO:7).

[6] = target: T2, Wild type human BCMA protein-mouse Fc; assay: as above
Method: as §1

[7] = target: his-tagged cynomolgus BCMA protein (ACROBiosystems, catalog # BCA-052H7) (cynomolgus); assay: SPR, his-tagged cynomolgus BCMA; KD only in the figure
[8] = target: his-tagged mouse BCMA protein (ACROBiosystems, catalog # BCA-M52H3) (mouse) (UniProt O88472); assay: SPR, his-tagged mouse BCMA; KD only in the figure
BCMA on MM1R cells = target: T3, BCMA on MM1R cells; assay: flow cytometry on MM1R cells, 5x serial dilution, FITC goat anti-human IgG F(ab')2, GeoMean BL1-H
From the text: Flow cytometry was used to test antibody binding to multiple myeloma cell line MM1R, using various anti-BCMA antibodies (5× serial dilution) and 80,000 cells per well. The secondary antibody was FITC AffiniPure FAB2 fragment goat anti-human IgG (H+L) (from Jackson Immuno Research). […] A BL-1 detector (IntelliCyt iQue Screener Plus) which detects at 530 nm was used. The geometric mean is reported.

[9] = target: T4, Mutant-1 human BCMA protein-mouse Fc; assay: bio-layer interferometry, antibody (100 nM) on AR2G sensor, BCMA-mouse Fc in solution
[10] = target: T2, Wild type human BCMA protein-mouse Fc; assay: bio-layer interferometry, antibody coupled to AR2G sensor, human BCMA-mouse Fc at 2 ug/mL
[11] = target: his-tagged human BCMA protein (ACROBiosystems, catalog # BCA-H522y-100 ug) (human) (UniProt Q02223); assay: SPR, his-tagged human BCMA; KD only in the figure
[12] = target: T1, Mutant-2 human BCMA protein-mouse Fc; assay: bio-layer interferometry, antibody (100 nM) on AR2G sensor, BCMA-mouse Fc in solution

Row | Binder | binding [1] | binding [4] | binding [7] | binding [9] | further results
1 | BCA7-2C5 antibody (antibody, V domains shown) VH: EVQLVESGGGLVKPGGSLRLSCAASGFTSSTAWMSWVRQAPGKGLEWVGRIKSKSDGGTTDYAAPVKGRFTISRDDSKNTLFLQMNSLKTEDTAVYYCAKGGGTYGYWGQGTTVTVSS VL: QSALTQPASVSGSPGQSVTISCTGTSSAHGGHYYVSWYQQHPGKAPKLMIYDVSNRPSGVSNRFSGSKSGNTASLTISGLQAEDEADYYCGSYTSSGSYVFGTGTKLTVL | binds | binds | binds | no binding | binding [2]: binds; binding [3]: binds; binding [5]: binds; binding [6]: binds; binding [8]: binds; binding (BCMA on MM1R cells): binds; binding [10]: binds; binding [11]: binds
2 | BCA7-2E1 antibody (antibody, V domains shown, also called BCA-2E1) VH: EVQLVESGGGLVKPGGSLRLSCAASGFTSSTAWMSWVRQAPGKGLEWVGRIKSKSDGGTTDYAAPVKGRFTISRDDSKNTLFLQMNSLKTEDTAVYYCAKGGGTYGYWGQGTTVTVSS VL: QSALTQPASVSGSPGQSVTISCTGTSSDGGGHTYVSWYQQHPGKAPKLMIYDVSNRPSWVSNRFSGSKSGNTASLTISGLQAEDEADYYCGSYTSSGSYVFGTGTKLTVL |  | binds | binds | no binding | 
3 | BC4C9 antibody (antibody, V domains shown) VH: EVQLVQSGAEVKKPGASVKVSCKAFGYTFTSYDINWVRQATGQGLEWMGWMNPNSGNTGYAQKFQGRVTMTRNTSISTAYMELSSLRSEDTAVYYCASGLGEWGQGTLVTVSS VL: QSVLTQPASVSGSPGQSVTISCTGTSSDVGGYNYVSWYQQHPGKAPKLMIYDVSKRPSGVSNRFSGSKSGNTASLTISGLQAEDEADYYCISYSSSSTFYVFGTGTKVTVL |  |  |  | no binding | 
4 | GSK J6M0 antibody (GSK anti-BCMA Ab) (antibody, V domains shown, Comparator anti-BCMA antibody; captured by anti-human Fc in SPR, so it carries a human Fc; also called GSK antibody) VH: QVQLVQSGAEVKKPGSSVKVSCKASGGTFSNYWMHWVRQAPGQGLEWMGATYRGHSDTYYNQKFKGRVTITADKSTSTAYMELSSLRSEDTAVYYCARGAIYDGYDVLDNWGQGTLVTVSS VL: DIQMTQSPSSLSASVGDRVTITCSASQDISNYLNWYQQKPGKAPKLLIYYTSNLHSGVPSRFSGSGSGTDFTLTISSLQPEDFATYYCQQYRKLPWTFGQGTKLEIK |  | binds |  |  | binding [12]: no binding
5 | BCA7-2D8 antibody (antibody, V domains shown) VH: EVQLVESGGGLVKPGGSLRLSCAASGFTSSTAWMSWVRQAPGKGLEWVGRIKSKSDGGTTDYAAPVKGRFTISRDDSKNTLFLQMNSLKTEDTAVYYCAKGGGTYGYWGQGTTVTVSS VL: QSVLTQPASVSGSPGQSVTISCTGTSSSIGDSYYVSWYQQHPGKAPKLMIYDVSNRPSGVSNRFSGSKSGNTASLTISGLQAEDEADYYCGSYTSSGSYVFGTGTTLTVL | binds |  |  |  | 
6 | Bluebird C11D5 antibody (BB anti-BCMA Ab) (antibody, V domains shown, Comparator anti-BCMA antibody; also called BB C11D5; Bluebird antibody) VH: QIQLVQSGPELKKPGETVKISCKASGYTFTDYSINWVKRAPGKGLKWMGWINTETREPAYAYDFRGRFAFSLETSASTAYLQINNLKYEDTATYFCALDYSYAMDYWGQGTTLTVSS VL: DIVLTQSPASLAMSLGKRATISCRASESVSVIGAHLIHWYQQKPGQPPKLLIYLASNLETGVPARFSGSGSGTDFTLTIDPVEEDDVAIYSCLQSRIFPRTFGGGTKLEIK |  | binds |  |  | 
